Experimental data: PubChem BioAssay AID686979 (National Center for Advancing Translational Sciences (NCATS), 2013)
The campaign covered roughly 420,000 compounds. About 50,000 (12%) were called active. The shares of active, inactive and inconclusive entries below differ from those in the screen. The call rests on the fitted dose curve; in most records, active means well fitted inhibition curve with a large enough effect; inconclusive means small, poorly fitted or top-dose-only effect; inactive means flat fitted curve, though single readings scatter. Potencies of inconclusive entries are left out as doubtful fits.

Assay: qHTS for Inhibitors of human tyrosyl-DNA phosphodiesterase 1 (TDP1): qHTS in cells in presence of CPT; further: nearly all actives have a fitted effect of over 55% in size
Details: chicken DT40 Tdp1-/-;hTDP1 cells + 20 nM CPT, ATP luminescence, 48 h; activity change, negative = growth inhibition: at 46.2 µM (top of the series) unless noted
How it was run: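 Chicken DT40 Tdp1-/- cells complemented with human TDP1, 400 cells/well, exposed to compounds plus 20 nM camptothecin for at least 48 h at 37 C; viability read as ATP content by CellTiter-Glo luminescence.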
On the % scale 0 is the no-effect control and ±100 the full control effect; potency means the concentration at half of the fitted maximal effect; tags describe the fitted curve by direction and shape.

| Compound | Potency | activity change, negative = growth inhibition |
| --- | --- | --- |
| O=C(NCCN1CCN(c2ccccc2F)CC1)c1cccn2c(=O)c3ccccc3nc12 | inconclusive [inhibitor, single point] | – |
| CC(C)CCNC(=O)Cn1cc(S(=O)(=O)Cc2ccc(F)cc2)c2ccccc21 | active: 25.9 µM | – |
| CCN(CC)S(=O)(=O)c1ccc2c(c1)c(=O)c(C(=O)N1CCN(c3ccccc3OC)CC1)cn2C | inactive | – |
| O=C(NCCCN1CCN(c2ccccc2F)CC1)c1sc2ncccc2c1-n1cccc1 | inconclusive [inhibitor, single point] | – |
| NC(=S)NNC(=O)Nc1ccc(Cl)c(Cl)c1 | inconclusive [inhibitor, single point] | – |
| O=C(NC(=S)N1CCCCC1)c1cccs1 | inconclusive [inhibitor, single point] | – |
| CCOC(=O)C1(Cc2ccccc2C)CCCN(C(=O)CN2C(=O)CSC2=O)C1 (configuration not stated) | – | inconclusive: -31.2% [inhibitor] |
| C=CCNC(=O)NC(=O)COC(=O)c1cccnc1SC | inactive | – |
| COc1cccc2cc(-c3nc4ccc(C)cc4[nH]3)c(=O)oc12 | inactive | – |
| CCOC(=O)Cn1c(S(=O)(=O)Cc2ccccc2Cl)nc(-c2ccccc2)c1-c1ccccc1 | active: 16.4 µM | – |
| COC(=O)CCCCCN1C(=O)NC(c2ccccc2)C(C(=O)OCc2ccccc2)=C1C (configuration not stated) | active: 20.6 µM | – |
| CCn1c(SCc2nc(-c3ccccc3)no2)nnc1-c1ccco1 | inactive | – |
| O=C1CCSC2(C(=O)N(Cc3ccccc3)c3ccccc32)N1c1ccccc1 (configuration not stated) | active: 9.2 µM | – |
| CSCCC(NS(=O)(=O)c1c(Cl)cccc1Cl)C(=O)O (configuration not stated) | inactive | – |
| Cc1ccc(S(=O)(=O)N2CCOCC2)cc1C(=O)OCC(=O)NCCc1ccccc1 | inconclusive [inhibitor, single point] | – |
| CCOC(=O)C1CCN(C(=S)Nc2cc(OC)c(OC)cc2C(=O)OC)CC1 | inactive | – |
| CS(=O)(=O)c1ccc2nc(NC(=O)c3cccc(NS(=O)(=O)c4ccc(F)c(F)c4)c3)sc2c1 | inconclusive [inhibitor, single point] | – |
| COc1ccc(/C=N/NC(=O)Cc2cc(OC)c(OC)cc2[N+](=O)[O-])cc1 | inactive | – |
| CCCC(=O)N1CCN(c2nnc(-c3ccc(C)cc3)c3ccccc23)CC1 | inconclusive [inhibitor, single point] | – |
| CCc1ccc(N(C(=O)c2snc(C(N)=O)c2N)C(C(=O)NC2CCCC2)c2ccco2)cc1 (configuration not stated) | inconclusive [inhibitor, single point] | – |
| CCCC(=O)OC1=C(C(C)=O)N(Cc2ccccc2)S(=O)(=O)c2ccccc21 | inconclusive [inhibitor, single point] | – |
| Cc1cc(S(=O)(=O)NCCc2csc(-c3cccc(F)c3)n2)ccc1F | inconclusive [inhibitor, full curve, poor fit] | – |
| COC(=O)c1ccc(CNC(=O)C23CC4CC(CC(C4)C2)C3)cc1 | inactive | – |
| CCCN(CCC)Cc1cc(=O)oc2cc(C)c(C)cc12 | inconclusive [inhibitor, single point] | – |

| Compound | Potency | activity change, negative = growth inhibition |
| --- | --- | --- |
| CCN(Cc1ccccc1)C(=S)NC(=O)c1ccccc1Br | inconclusive [inhibitor, single point] | – |
| Cc1ccc(C(=O)NCc2ccccc2CN2CCCC2)cc1S(=O)(=O)N1CCOCC1 | inconclusive [inhibitor, single point] | – |
| CN(CC(=O)Nc1ccc(F)cc1[N+](=O)[O-])Cc1ccccc1 | inactive | – |
| O=[N+]([O-])c1cccnc1Sc1ccc(Cl)cc1 | inactive | – |
| CC(=O)N1c2ccc(S(=O)(=O)NCC3CCC(C(=O)Nc4cccc(C)c4)CC3)cc2CC1C (configuration not stated) | active: 16.4 µM | – |
| O=c1c2ccccc2n2c(-c3cccc(Cl)c3)nnc2n1Cc1ccccc1 | inconclusive [inhibitor, partial curve] | – |
| Cc1ccc(C)c(C(C)NC(=O)c2ccc(Br)o2)c1 (configuration not stated) | inconclusive [inhibitor, single point] | – |
| O=C(c1cccs1)N1CCN(S(=O)(=O)c2ccc(F)cc2)CC1 | inactive | – |
| Cc1onc(-c2c(F)cccc2Cl)c1C(=O)Nc1ccc(Cl)c(S(=O)(=O)N(C)C)c1 | inconclusive [inhibitor, partial curve] | – |
| Cc1cc(Br)ccc1NC(=O)c1ccccc1-c1ccccc1 | inconclusive [inhibitor, single point] | – |
| CCc1cccc(CC)c1NC(=O)/C(C#N)=C/c1ccccc1C(F)(F)F | inconclusive [inhibitor, single point] | – |
| CC(C)c1ccc(NC(=O)Nc2nc(C(N)c3ccccc3Cl)cs2)cc1 (configuration not stated) | active: 13 µM | – |
| Cc1nc(N2CCCCC2C)c2c(C)c(C(=O)Nc3ccccc3C(F)(F)F)sc2n1 (configuration not stated) | inconclusive [inhibitor, single point] | – |
| Cc1cc2c(c(SCC#N)n1)C(=O)OC2 | inactive | – |
| COC(=O)c1cc(Cl)c(NC(=O)/C=C/c2ccc(Cl)cc2)cc1OC | inconclusive [inhibitor, single point] | – |
| O=C(CCS(=O)(=O)c1cc2c(cc1Cl)NC(=O)CO2)NCc1ccccc1 | inconclusive [inhibitor, single point] | – |
| COc1cccc(N2CCN(C(=O)C3CCC(=O)N(C4CCCCCC4)C3)CC2)c1 (configuration not stated) | active: 14.6 µM | – |
| COC(=O)c1ccc(OCC(=O)N2CCCc3ccccc32)cc1 | inactive | – |
| CCN(Cc1ccccc1)S(=O)(=O)c1ccc(N2CCCCS2(=O)=O)cc1 | inconclusive [inhibitor, single point] | – |
| O=C(Nc1ccc(C(=O)N2CCCC2)cc1)c1ccccc1 | inconclusive [inhibitor, partial curve] | – |
| CCc1nc2ccc(C(=O)NCCCn3ccnc3)cn2c1N(C)Cc1cccs1 | inconclusive [inhibitor, single point] | – |
| C=CCSc1nc2sc3c(c2c(=O)n1-c1ccccc1)CCN(C)C3 | inconclusive [inhibitor, single point] | – |
| COc1cccc(CNC(=O)C2CCN(C(=O)N3CC(C)Oc4ccccc43)CC2)c1 (configuration not stated) | inconclusive [inhibitor, single point] | – |
| CCCCNC(=O)c1cnc2c(-c3ccc(OCC)c(OCC)c3)c(C)nn2c1-c1ccccc1 | inconclusive [inhibitor, partial curve] | – |

| Compound | Potency | activity change, negative = growth inhibition |
| --- | --- | --- |
| CCc1ccc2nc(N3CCC(C(=O)NCCC(C)C)CC3)sc2c1 | inconclusive [inhibitor, single point] | – |
| Cc1ccc(CN2CCOc3ccc(CN4CCC(O)(c5cccnc5)CC4)cc3C2)cc1 | inconclusive [inhibitor, single point] | – |
| CCOc1ccc2[nH]c3c(NCCC(C)C)ncnc3c2c1 | active: 25.9 µM | – |
| COc1cccc(NC(=O)NC2CCCCCCC2)c1 | inconclusive [inhibitor, single point] | – |
| O=S(=O)(Cc1ccccc1Cl)CC(O)COc1ccccc1Cl (configuration not stated) | inconclusive [inhibitor, partial curve] | – |
| COc1ccc(C2=Nn3c(nnc3-c3ccncc3)SC2)cc1OC | inconclusive [inhibitor, single point] | – |
| COc1ccc(S(=O)(=O)N2CCCCC2)cc1NS(=O)(=O)c1ccc(CNC(C)=O)cc1 | inactive | – |
| C=CCNC(=O)CCC(=O)NNc1nc2ccccc2c2nc(-c3ccccc3)nn12 | inactive | – |
| S=C(Nc1ccccc1)Nc1ccc(Br)cn1 | active: 6.51 µM | – |
| Cc1ccc(Nc2c3c(nc4ncnn24)CC(C)CC3)cc1 (configuration not stated) | inconclusive [inhibitor, partial curve] | – |
| COc1ccc(CCNC(=O)COc2ccc3c(C)cc(=O)oc3c2)cc1OC | inconclusive [inhibitor, single point] | – |
| Cc1nc(Nc2ccc3c(c2)OCCO3)c2oc3ccccc3c2n1 | inconclusive [inhibitor, single point] | – |
| Cc1ccc(C(=O)Nc2cccc(C(O)c3ccccc3)c2)cc1 (configuration not stated) | inactive | – |
| CCc1cccc(C)c1NC(=O)c1cc2ccccc2o1 | active: 18.4 µM | – |
| COc1ccc(-c2ccnc(SCC(=O)Nc3ccccn3)n2)cc1 | inconclusive [inhibitor, single point] | – |
| CN(C)c1ccc(C(=O)Nc2nnc(C3=COCCO3)o2)cc1 | inconclusive [inhibitor, single point] | – |
| COc1cccc(CNc2nc3cc(-c4cnn(Cc5ccccc5)c4)sc3c(=O)n2C)c1 | inconclusive [inhibitor, single point] | – |
| CN1CCC(N(C)S(=O)(=O)c2ccc(NC(=O)COc3cccc(C(F)(F)F)c3)cc2)CC1 | inconclusive [inhibitor, single point] | – |
| COc1cc(SC)ccc1C(=O)OCC(=O)N1CCCC1 | inactive | – |
| CCOc1ccc(C(CC(=O)O)NC(=O)Cc2ccc(Cl)cc2)cc1 (configuration not stated) | inactive | – |
| O=S(=O)(Nc1ccc(-n2cccc2)cc1)c1ccccc1 | inconclusive [inhibitor, single point] | – |
| CCCN1CCN(C(=O)c2noc3c2COc2ccc(C)cc2-3)CC1 | active: 20.6 µM | – |
| S=C(NCc1ccccn1)Nc1ccc(Cl)c(Cl)c1 | active: 16.4 µM | – |
| Cc1cc(C)c(CN2CCN(CCCn3cnc(C(=O)Nc4ccc(C)c(C)c4)n3)CC2)c(C)c1 | inconclusive [inhibitor, single point] | – |
